From the GPR68 mutational scans of Howard et al. (2025) come the findings set out here.

B1: GPR68, Q15743 (parent)
chain: MGNITADNSSMSCTIDHTIHQTLAPVVYVTVLVVGFPANCLSLYFGYLQIKARNELGVYLCNLTVADLFYICSLPFWLQYVLQHDNWSHGDLSCQVCGILLYENIYISVGFLCCISVDRYLAVAHPFRFHQFRTLKAAVGVSVVIWAKELLTSIYFLMHEEVIEDENQHRVCFEHYPIQAWQRAINYYRFLVGFLFPICLLLASYQGILRAVRRSHGTQKSRKDQIQRLVLSTVVIFLACFLPYHVLLLVRSVWEASCDFAKGVFNAYHFSLLLTSFNCVADPVLYCFVSETTHRDLARLRGACLAFLTCSRTGRAREAYPLGAPEASGKSGAQGEEPELLTKLHPAFQTPNSPGSGGFPTGRLA

Scores whose standard error is large were omitted. The source holds two more conditions with little spread; they are left out. Read del as a deletion of the residues named and ins as an insertion between two positions. For part of these data: How much ogerin was present is not stated here.

In data set [1] the parent is B1. Put plainly: cAMP reporter score (Enrich2 score, wild type = 0); higher = more signal; HEK293T, FACS bins.
In data set [2] the parent is B1. Put plainly: surface expression score (Enrich2 score, wild type = 0); higher = more signal; HEK293T, FACS bins.

As to S356G, the cAMP reporter score in data set [1] (pH 5.5) was 0.28; in data set [1] (pH 6, modulator: ogerin), 0.11; in data set [1] (pH 6.5, modulator: ogerin) it was 0.347. In addition, in data set [2], the surface expression score was determined as 0.267.

As for S356E, the cAMP reporter score in data set [1] (pH 5.5) is 1.15; in data set [1] (pH 6, modulator: ogerin), 0.917; in data set [1] (pH 6.5, modulator: ogerin), 0.913. For the same variant, the surface expression score in data set [2] was found to be 0.069.

For the variant S356T, the cAMP reporter score in data set [1] (pH 5.5) was 0.633; in data set [1] (pH 6) it was -0.911; in data set [1] (pH 6, modulator: ogerin), 0.857; in data set [1] (pH 6.5, modulator: ogerin), 0.182. For the same variant, in data set [2], the surface expression score came to 0.559.

For S356N, the cAMP reporter score in data set [1] (pH 5.5) came to 0.384; in data set [1] (pH 6, modulator: ogerin) it was 1.04; in data set [1] (pH 6.5, modulator: ogerin), 0.837. Also, the surface expression score in data set [2] amounted to 1.03.

G362P: the cAMP reporter score in data set [1] (pH 5.5) is -0.369; in data set [1] (pH 6), -0.775; in data set [1] (pH 6, modulator: ogerin), -0.397; in data set [1] (pH 6.5, modulator: ogerin) it was -0.049. For the same variant, in data set [2], the surface expression score was found to be 0.02.

As for G362I, the cAMP reporter score in data set [1] (pH 5.5) was 0.835; in data set [1] (pH 6), -0.344; in data set [1] (pH 6, modulator: ogerin) it was 0.376; in data set [1] (pH 6.5, modulator: ogerin) it was -0.196. The surface expression score in data set [2] worked out at 0.641.

For the variant G362L, the cAMP reporter score in data set [1] (pH 5.5) stood at 0.786; in data set [1] (pH 6) it was 1.62; in data set [1] (pH 6, modulator: ogerin) it was 0.633; in data set [1] (pH 6.5, modulator: ogerin), 1.44. In addition, in data set [2], the surface expression score was -0.094.

In the case of G362T, the cAMP reporter score was found to be 1.36 in data set [1] (pH 5.5); 1.05 in data set [1] (pH 6); 1.33 in data set [1] (pH 6.5, modulator: ogerin). Further, the surface expression score in data set [2] stood at 0.145.

Regarding G362C, the cAMP reporter score in data set [1] (pH 5.5) came to 0.619; in data set [1] (pH 6, modulator: ogerin), 0.909; in data set [1] (pH 6.5, modulator: ogerin), 1.04. Besides, the surface expression score in data set [2] was found to be 0.515.

Regarding G362R, the cAMP reporter score in data set [1] (pH 5.5) is -1.28; in data set [1] (pH 6), -0.965; in data set [1] (pH 6, modulator: ogerin), -1.12; in data set [1] (pH 6.5, modulator: ogerin), -1.27. Moreover, in data set [2], the surface expression score is -1.61.

As for G362Q, the cAMP reporter score was -0.199 in data set [1] (pH 5.5); -0.332 in data set [1] (pH 6); -0.516 in data set [1] (pH 6, modulator: ogerin); -0.282 in data set [1] (pH 6.5, modulator: ogerin). In data set [2], the surface expression score was -0.267.

As for G362A, the cAMP reporter score in data set [1] (pH 5.5) worked out at 0.99; in data set [1] (pH 6), 0.446; in data set [1] (pH 6, modulator: ogerin), 0.692; in data set [1] (pH 6.5, modulator: ogerin) it was 0.419. For the same variant, in data set [2], the surface expression score turned out to be 0.795.

Regarding G362N, the cAMP reporter score came out at 0.071 in data set [1] (pH 5.5) and 0.97 in data set [1] (pH 6, modulator: ogerin). Besides, in data set [2], the surface expression score was found to be 1.33.

Consider G362S, for which the cAMP reporter score in data set [1] (pH 5.5) was found to be 0.409; in data set [1] (pH 6), 0.451; in data set [1] (pH 6, modulator: ogerin), 0.643; in data set [1] (pH 6.5, modulator: ogerin) it was 0.516. Further, the surface expression score in data set [2] was -0.452.

For the variant G362W, the cAMP reporter score is -0.125 in data set [1] (pH 5.5); 0.296 in data set [1] (pH 6); 0.03 in data set [1] (pH 6, modulator: ogerin); -0.281 in data set [1] (pH 6.5, modulator: ogerin). Also, in data set [2], the surface expression score is -1.2.

On to G362Y, for which the cAMP reporter score in data set [1] (pH 5.5) is 0.577; in data set [1] (pH 6), 0.375; in data set [1] (pH 6, modulator: ogerin) it was 0.555; in data set [1] (pH 6.5, modulator: ogerin) it was -0.179. For the same variant, the surface expression score in data set [2] turned out to be 0.173.

For G362D, the cAMP reporter score in data set [1] (pH 5.5) was -0.258; in data set [1] (pH 6), 0.657; in data set [1] (pH 6, modulator: ogerin) it was 0.563. Moreover, the surface expression score in data set [2] came to 0.777.

On to G362E, for which the cAMP reporter score in data set [1] (pH 5.5) is -0.072; in data set [1] (pH 6) it was 0.25; in data set [1] (pH 6, modulator: ogerin), -0.239; in data set [1] (pH 6.5, modulator: ogerin) it was -0.115. The surface expression score in data set [2] is -0.371.

With G362H, the cAMP reporter score in data set [1] (pH 5.5) was found to be 1.65; in data set [1] (pH 6, modulator: ogerin) it was 1.96; in data set [1] (pH 6.5, modulator: ogerin) it was 1.58. Further, the surface expression score in data set [2] came to 1.06.

Consider G362M, for which the cAMP reporter score in data set [1] (pH 5.5) is 0.576; in data set [1] (pH 6) it was 0.187; in data set [1] (pH 6, modulator: ogerin), 0.65; in data set [1] (pH 6.5, modulator: ogerin), -0.295. Besides, the surface expression score in data set [2] was 0.24.

For G362K, the cAMP reporter score in data set [1] (pH 5.5) came to 0.678; in data set [1] (pH 6) it was 0.288; in data set [1] (pH 6, modulator: ogerin), 0.881; in data set [1] (pH 6.5, modulator: ogerin), 0.203. Besides, the surface expression score in data set [2] turned out to be 0.242.

Consider G362F, for which the cAMP reporter score was 0.107 in data set [1] (pH 5.5); -1.26 in data set [1] (pH 6); -0.395 in data set [1] (pH 6, modulator: ogerin); 0.039 in data set [1] (pH 6.5, modulator: ogerin). Also, the surface expression score in data set [2] was 0.3.

As to G358_P360del, the cAMP reporter score in data set [1] (pH 5.5) is -0.233; in data set [1] (pH 6), -0.245; in data set [1] (pH 6, modulator: ogerin), 0.427; in data set [1] (pH 6.5, modulator: ogerin), 0.646. Also, the surface expression score in data set [2] was -0.002.

As for T361del, the cAMP reporter score was determined as 0.691 in data set [1] (pH 5.5); 0.663 in data set [1] (pH 6, modulator: ogerin); 0.958 in data set [1] (pH 6.5, modulator: ogerin). Moreover, the surface expression score in data set [2] came to 1.01.

In the case of S356_G357insGSG, the cAMP reporter score in data set [1] (pH 5.5) came to 0.677; in data set [1] (pH 6), 1.07; in data set [1] (pH 6, modulator: ogerin), 0.456; in data set [1] (pH 6.5, modulator: ogerin), 0.663. In addition, the surface expression score in data set [2] was 0.848.

For G357_G358insGSG, the cAMP reporter score in data set [1] (pH 5.5) stood at 0.283; in data set [1] (pH 6) it was 0.483; in data set [1] (pH 6, modulator: ogerin), 0.55; in data set [1] (pH 6.5, modulator: ogerin), 0.56. For the same variant, the surface expression score in data set [2] worked out at 0.179.

As for S356_G357insG, the cAMP reporter score in data set [1] (pH 5.5) was -0.762; in data set [1] (pH 6), -0.733; in data set [1] (pH 6, modulator: ogerin) it was -0.021; in data set [1] (pH 6.5, modulator: ogerin), -0.308. Also, in data set [2], the surface expression score was -0.178.

Take F359_T361del: the cAMP reporter score came to 0.957 in data set [1] (pH 5.5); 0.216 in data set [1] (pH 6); 1.77 in data set [1] (pH 6, modulator: ogerin); 1.86 in data set [1] (pH 6.5, modulator: ogerin). Moreover, the surface expression score in data set [2] is 1.04.

On to S356del, for which the cAMP reporter score in data set [1] (pH 5.5) stood at 1.53; in data set [1] (pH 6), 0.505; in data set [1] (pH 6, modulator: ogerin), 0.987; in data set [1] (pH 6.5, modulator: ogerin), 1.11. For the same variant, the surface expression score in data set [2] came to 0.257.

With T361_G362del, the cAMP reporter score in data set [1] (pH 5.5) was 0.497; in data set [1] (pH 6) it was -0.122; in data set [1] (pH 6, modulator: ogerin) it was 0.948; in data set [1] (pH 6.5, modulator: ogerin) it was 0.536. In addition, the surface expression score in data set [2] came out at 0.821.

Consider V26R, for which the cAMP reporter score was -1.57 in data set [1] (pH 6); -0.744 in data set [1] (pH 6, modulator: ogerin); -1.02 in data set [1] (pH 6.5, modulator: ogerin). Besides, in data set [2], the surface expression score was -2.02.

As for V26S, the cAMP reporter score in data set [1] (pH 6) was -0.724; in data set [1] (pH 6, modulator: ogerin), -1.1; in data set [1] (pH 6.5, modulator: ogerin) it was -1.58.
